Measured values reported in the supplement of paper PMC3334620.
The full ranking holds about 33,000 sequences; the median of “E-score (-0.5 to 0.5)” is about -0.013, and the highest 2% start at about 0.3. The list shows a part of the results.

target: T1, Msn1 (UniProt P22148); test: PBM E-score (8-mer binding enrichment) (E-score (-0.5 to 0.5)); higher = stronger / more preferred TF binding; most listed sequences are background and not binding sites; details: protein concentration: 200 nM; construct: GST-full length
T1 sequence: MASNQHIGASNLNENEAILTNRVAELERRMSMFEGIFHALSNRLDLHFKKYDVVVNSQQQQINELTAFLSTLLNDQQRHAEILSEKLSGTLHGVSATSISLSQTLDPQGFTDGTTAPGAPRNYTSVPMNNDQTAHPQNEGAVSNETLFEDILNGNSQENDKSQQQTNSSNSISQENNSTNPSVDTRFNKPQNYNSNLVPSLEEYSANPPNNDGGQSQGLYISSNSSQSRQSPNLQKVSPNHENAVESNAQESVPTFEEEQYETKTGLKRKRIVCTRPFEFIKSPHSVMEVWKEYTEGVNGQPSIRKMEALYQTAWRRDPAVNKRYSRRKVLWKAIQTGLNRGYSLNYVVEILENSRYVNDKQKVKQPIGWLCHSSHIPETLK
Outline: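 Each ungapped eight-base word and its reverse complement, pooled, received an E-score from the Universal PBM Analysis Suite. Underlying scans, normalised with masliner, recorded fluorescent anti-GST bound to GST-tagged yeast transcription factors. These were applied at about 100-200 nM to universal all-10-mer Agilent arrays double-stranded by primer extension.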

| Sequence | PBM E-score |
| --- | --- |
| AAATGGAG | 0.0334 |
| GGCCTTCA | 0.0223 |
| ATCGGCAC | 0.0175 |
| CTATGGGC | -0.106 |
| ACCACCCT | -0.22 |
| GCCCGGGA | 0.0521 |
| CCCCGCGC | -0.284 |
| AACACTTC | -0.0636 |
| GCGCTGAC | 0.0228 |
| CTGCACCC | -0.108 |
| CTATTTTC | 0.122 |
| CGAGGAAA | -0.0297 |
| ATGACGGC | -0.111 |
| CATCCCAG | -0.123 |
| ATGGTCAA | 0.175 |
| CGCAGACA | 0.323 |
| CATAGTGA | -0.00964 |
| ATATTCCA | 0.212 |
| CATATACA | 0.249 |
| GGATGCCC | -0.262 |
| ACCGAGCT | -0.0607 |
| CTAGGTAC | 0.0565 |
| ATAACTCC | -0.0864 |
| AAATCCTC | -0.19 |
| TCGTTGAA | 0.0434 |

| Sequence | PBM E-score |
| --- | --- |
| AAAAGTCA | 0.194 |
| CGCTAAAG | 0.0332 |
| AAGGTACA | 0.166 |
| ACTTGTGC | -0.14 |
| CAAAGAGA | -0.0521 |
| CAGCAGAG | -0.279 |
| AAGCGTCC | -0.134 |
| AGATATGC | 0.0144 |
| GCTGGCCC | -0.389 |
| CTTTACAC | 0.16 |
| GGATTTGA | -0.0389 |
| CGTCCCCA | 0.0173 |
| CCGCTATC | -0.0822 |
| CTCTGCAC | -0.246 |
| AATACGCC | 0.104 |
| AAAGCACT | -0.0831 |
| GGGAATAA | 0.0508 |
| ATAAAAAG | 0.224 |
| AAAGCGAC | 0.108 |
| CCTATACA | 0.0727 |
| CCATCGCC | -0.135 |
| CACGGTGC | -0.0861 |
| ACGACCCG | -0.0166 |
| ACGGGGGA | -0.162 |
| CATTATCG | 0.0557 |

| Sequence | PBM E-score |
| --- | --- |
| ATCGGTCA | 0.0243 |
| ACAAGGAT | 0.108 |
| GAATAATA | 0.129 |
| GACGGTTA | -0.198 |
| CTGGTGAA | -0.201 |
| ACGGAACC | 0.162 |
| CTACGTAC | 0.135 |
| ACAGATAC | 0.256 |
| GTACAGCA | -0.104 |
| ATACACAT | 0.0536 |
| AGCCTAGG | -0.172 |
| AATTCGGT | 0.215 |
| ACCTTAAA | -0.0187 |
| AGGTTTTC | 0.135 |
| GGCATCAC | -0.121 |
| GGTATCAC | -0.124 |
| ACGATTGC | 0.0068 |
| ACTTAATC | 0.0948 |
| GTCACCTA | -0.0908 |
| GTCAGTCA | 0.141 |
| CTGTATAC | 0.153 |
| GTCAAGAA | 0.0556 |
| ATTGTGAC | 0.284 |
| ATTTAAAA | 0.13 |
| GGGACCTA | 0.0296 |

| Sequence | PBM E-score |
| --- | --- |
| AGAGTCTA | -0.221 |
| CGCACACG | -0.112 |
| CCCAAGTA | -0.122 |
| CCCGGCAC | -0.174 |
| AATCAAGG | 0.0406 |
| CTAGCAGA | -0.0824 |
| CTGAGGGA | -0.253 |
| GCAGTTTA | -0.0109 |
| GTACGCAA | -0.00186 |
| TAGAAGCA | -0.229 |
| AGGTGTTG | -0.148 |
| TCATTCAA | 0.207 |
| GGAGTGAA | -0.189 |
| GTGTCGGA | 0.0876 |
| AACCATAA | 0.0654 |
| ACCGCACC | -0.182 |
| AGCACCGC | -0.193 |
| AGCTGAAG | -0.09 |
| CGAACCTC | -0.0905 |
| AACGGTGC | -0.127 |
| ACTGGGCC | -0.0731 |
| CAATAATA | 0.242 |
| CCCAAACC | -0.0128 |
| CAGCCTTA | -0.122 |
| AAGTGGAA | -0.0507 |

| Sequence | PBM E-score |
| --- | --- |
| GCGAGACA | 0.102 |
| CAATCATC | -0.0137 |
| AGTTCTGG | 0.0333 |
| ACCATGCA | 0.0412 |
| CAATCATG | 0.106 |
| GATTCGCA | 0.0379 |
| ACCGCCAT | -0.157 |
| AAGCCCAC | -0.203 |
| CTTCGCCA | -0.294 |
| GATTACCC | 0.12 |
| GATAGGCC | -0.125 |
| CAAAATCG | 0.216 |
| ACGTCCCG | 0.0295 |
| CCTAAGGC | -0.164 |
| GACCCGAA | 0.12 |
| CGGATCCC | -0.214 |
| AGACTTGC | -0.136 |
| ACGCGTCC | 0.13 |
| AGCATTTA | 0.0227 |
| CTGGCAGC | -0.271 |
| CTGGCCGA | -0.289 |
| ACAATGGC | 0.121 |
| GTACTGAA | 0.275 |
| CGAGATCC | 0.135 |
| ACAAGCTG | 0.0701 |

| Sequence | PBM E-score |
| --- | --- |
| AGGAGGTG | -0.306 |
| ATCGAGAA | 0.0941 |
| CACCTAAA | -0.0468 |
| AAGCAGTA | -0.139 |
| GCGTAGCC | -0.311 |
| CATGGTCA | 0.117 |
| CAAGCGCG | -0.0339 |
| GGCTAATA | 0.0752 |
| AGAAAGGG | -0.149 |
| CGCTTTGC | -0.0344 |
| GTCTTCTA | 0.11 |
| CTAATTCC | 0.209 |
| AGTCACGG | 0.0784 |
| AGGCGCAT | -0.0528 |
| CACACGCC | 0.0586 |
| ACCCATTC | -0.0687 |
| GGGGGCCA | -0.416 |
| ATTACTAA | 0.116 |
| ACATGCTG | 0.139 |
| ATACTATG | 0.137 |
| CATGATTC | -0.0643 |
| GTCAGAAA | -0.0732 |
| ACACAACC | 0.1 |
| AATAAAAC | 0.189 |
| GGCAAGTA | 0.0176 |

| Sequence | PBM E-score |
| --- | --- |
| ATAATGGA | 0.155 |
| CGTGCAGC | -0.0365 |
| CGAAGTGC | 0.0297 |
| GTATTCCA | 0.0881 |
| TTACTAAA | 0.199 |
| CCTAGGCG | -0.158 |
| CAACGTTA | 0.201 |
| GACGGGGC | -0.252 |
| AATTCACA | -0.00444 |
| AATAAGCG | -0.034 |
| CCCGTAGC | -0.102 |
| CTACACAC | -0.11 |
| ACCCAGAG | -0.198 |
| CCCGCCAG | -0.169 |
| CTACGACA | 0.311 |
| CGTTAGGC | -0.246 |
| CAAAAAGA | 0.0247 |
| AACCTACT | -0.114 |
| CTCGGAGC | 0.124 |
| AAGGGTGC | -0.0869 |
| TAGTCTCA | 0.0523 |
| ACCCCACA | -0.0822 |
